These results are taken from patent US12037378B2, “Variant CD58 domains and uses thereof” (NOVARTIS AG, priority 2019, dated 2024).

The subject of one assay is cyno CD19. The experiment in a line: Binding to 300.19 cells overexpressing cyno CD19 (FACS). The method, then: (§1) The mouse cell line 300.19 was engineered to overexpress either human CD19 or cyno CD19. Cells were cultured in RPMI medium (Invitrogen #11875-093) with 10% FBS and 2-mercaptoethanol. Cells were harvested and resuspended in FACS buffer (PBS containing 1% FBS). 50,000 cells per well were plated in a V-bottom 96-well plate. Each cell line was incubated with serial dilutions of TBMs of Example 1 for one hour on ice. Cells were centrifuged for 4 min at 400×g and washed with FACS buffer. This was repeated twice, and then the cells were incubated with Alexa-647 labeled anti-human Fc secondary antibody (Jackson Immuno #109-605-098) for 30 min on ice. The cells were washed twice, then resuspended in 100 μL of FACS buffer. FACS data was collected on a Beckman Coulter Cytoflex and analysis was performed using CytExpert v2.3.

The target in another assay is T1, human CD19 (Homo sapiens, UniProt P15391).
T1 construct: expressed in transfected cells; host or cells: mouse cell line 300.19
T1 sequence (P15391 20-556): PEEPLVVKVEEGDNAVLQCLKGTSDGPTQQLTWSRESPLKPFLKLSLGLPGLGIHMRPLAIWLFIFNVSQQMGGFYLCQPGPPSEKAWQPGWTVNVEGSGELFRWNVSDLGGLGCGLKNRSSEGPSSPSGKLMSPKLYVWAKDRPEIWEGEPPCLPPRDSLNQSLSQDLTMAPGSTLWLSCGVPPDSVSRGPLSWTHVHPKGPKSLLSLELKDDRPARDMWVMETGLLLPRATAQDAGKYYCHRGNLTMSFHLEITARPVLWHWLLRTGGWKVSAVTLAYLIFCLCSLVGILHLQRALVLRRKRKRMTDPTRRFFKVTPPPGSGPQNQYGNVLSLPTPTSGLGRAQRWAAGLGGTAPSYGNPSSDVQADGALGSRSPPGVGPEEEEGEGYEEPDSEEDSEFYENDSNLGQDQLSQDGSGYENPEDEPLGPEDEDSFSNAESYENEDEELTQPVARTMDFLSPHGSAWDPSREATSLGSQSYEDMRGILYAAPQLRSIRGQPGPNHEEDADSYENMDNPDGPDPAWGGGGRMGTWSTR
Description: Binding to 300.19 cells overexpressing human CD19 (FACS). The method, then: as §1

B1: NEG218-based TBM: trispecific with NEG218-based CD19 binding arm, CD3hi anti-CD3 scFv and IgV domain of CD58 (CD58-6) (antibody)
heavy: EVQLVQSGAEVKKPGESLKISCKASGYSFTNYWMNWVRQMPGKGLEWMGMIHPSDSEIRLNQKFQGQVTLSVDKSIGTAYMQWSSLKASDTAMYYCSRWYYLSSPMDYWGQGTTVTVSSASTKGPSVFPLAPSSKSTSGGTAALGCLVKDYFPEPVTVSWNSGALTSGVHTFPAVLQSSGLYSLSSVVTVPSSSLGTQTYICNVNHKPSNTKVDKRVEPKSCGGGGSGGGGSEVQLVESGGGLVQPGGSLKLSCAASGFTFNTYAMNWVRQASGKGLEWVGRIRSKYNNYATYYADSVKDRFTISRDDSKSTLYLQMNSLKTEDTAVYYCVRHGNFGNSYVSWFAYWGQGTLVTVSSGGGGSGGGGSGGGGSGGGGSQAVVTQEPSLTVSPGGTVTLTCRSSTGAVTTSNYANWVQQKPGQAPRGLIGGTNKRAPWTPARFSGSLLGDKAALTLSGAQPEDEAEYFCALWYSNLWVFGGGTKLTVLGGGGSDKTHTCPPCPAPELLGGPSVFLFPPKPKDTLMISRTPEVTCVVVAVSHEDPEVKFNWYVDGVEVHNAKTKPREEQYASTYRVVSVLTVLHQDWLNGKEYKCKVSNKALAAPIEKTISKAKGQPREPQVCTLPPSREEMTKNQVSLSCAVKGFYPSDIAVEWESNGQPENNYKTTPPVLDSDGSFFLVSKLTVDKSRWQQGNVFSCSVMHEALHNHYTQKSLSLSPGK
light: EIVMTQSPATLSVSPGERATLSCRASQDVGTAVAWYQQKPGQAPRLLIYWASTRHTGIPARFSGSGSGTEFTLTISSLQSEDFAVYFCQQYSSYPYTFGQGTKLEIKRTVAAPSVFIFPPSDEQLKSGTASVVCLLNNFYPREAKVQWKVDNALQSGNSQESVTEQDSKDSTYSLSSTLTLSKADYEKHKVYACEVTHQGLSSPVTKSFNRGEC
chain: SQQIYGVVYGNVTFHVPSNVPLKEVLWKKQKDKVAELENSEFRAFSSFKNRVYLDTVSGSLTIYNLTSSDEDEYEMESPNITDTMKFFLYVLESGGGGSDKTHTCPPCPAPELLGGPSVFLFPPKPKDTLMISRTPEVTCVVVAVSHEDPEVKFNWYVDGVEVHNAKTKPREEQYASTYRVVSVLTVLHQDWLNGKEYKCKVSNKALAAPIEKTISKAKGQPREPQVYTLPPCREEMTKNQVSLWCLVKGFYPSDIAVEWESNGQPENNYKTTPPVLDSDGSFFLYSKLTVDKSRWQQGNVFSCSVMHEALHNRYTQKSLSLSPGK
With B1, the “binding to 300.19 cells overexpressing cyno CD19” value in the assay on cyno CD19 is “bind to cell lines engineered to overexpress both human and cyno CD19”. For the same molecule, in the assay with human CD19, the “binding to 300.19 cells overexpressing human CD19” value is “bind to cell lines engineered to overexpress both human and cyno CD19”.
